{"source": "the BET-seq Pho4 binding data (Le et al. 2018)", "note": "This is one part of the list. These are noisy estimates, calculated here from bound and input reads."}
{"target": "T1, Pho4 (S. cerevisiae) (UniProt P07270)", "T1 sequence": "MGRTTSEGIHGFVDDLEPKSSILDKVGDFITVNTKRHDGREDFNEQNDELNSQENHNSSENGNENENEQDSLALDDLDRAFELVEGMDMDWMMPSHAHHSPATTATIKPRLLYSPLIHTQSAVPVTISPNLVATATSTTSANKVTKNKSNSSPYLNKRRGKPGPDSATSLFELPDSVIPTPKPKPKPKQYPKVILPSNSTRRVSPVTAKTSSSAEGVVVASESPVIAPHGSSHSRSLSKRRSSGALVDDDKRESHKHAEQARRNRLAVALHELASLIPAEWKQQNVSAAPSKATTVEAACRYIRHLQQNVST", "experiment": "relative binding free energy (BET-seq); higher = weaker binding", "details": "reference: library average", "units": {"relative binding free energy": "kcal/mol"}}
{"sequence": "TCTGTCACGTGGGTGA", "relative binding free energy": -0.12}
{"sequence": "GATGGCACGTGTGCGT", "relative binding free energy": -0.01}
{"sequence": "TTTACCACGTGTGGTA", "relative binding free energy": -0.14}
{"sequence": "AAGGTCACGTGCCAGT", "relative binding free energy": 0.15}
{"sequence": "TCCCGCACGTGGGGGT", "relative binding free energy": -0.16}
{"sequence": "TACGGCACGTGTGGAT", "relative binding free energy": 0}
{"sequence": "TCTATCACGTGGTGTT", "relative binding free energy": 0.1}
{"sequence": "GGACTCACGTGCAGGG", "relative binding free energy": 0.33}
{"sequence": "GTTCTCACGTGTTTAT", "relative binding free energy": 0.33}
{"sequence": "ATTGTCACGTGGGTAT", "relative binding free energy": -0.11}
{"sequence": "GTGGGCACGTGCCCGG", "relative binding free energy": -0.14}
{"sequence": "TCATTCACGTGGTTTG", "relative binding free energy": 0.18}
{"sequence": "TTTTCCACGTGTGGGA", "relative binding free energy": 0.08}
{"sequence": "GTCCTCACGTGGTTGG", "relative binding free energy": 0.31}
{"sequence": "GGGGACACGTGATATT", "relative binding free energy": 0.23}
{"sequence": "CGTGGCACGTGGTCGT", "relative binding free energy": -0.24}
{"sequence": "ATGTTCACGTGAGCTT", "relative binding free energy": 0.32}
{"sequence": "ATTAGCACGTGGTAAG", "relative binding free energy": -0.17}
{"sequence": "AGAGACACGTGGTTGG", "relative binding free energy": 0.02}
{"sequence": "GTGATCACGTGGGCTC", "relative binding free energy": 0.15}
{"sequence": "TGGTTCACGTGGCAGC", "relative binding free energy": 0.19}
{"sequence": "ATGGACACGTGTTATA", "relative binding free energy": 0.03}
{"sequence": "CGTATCACGTGGGGGC", "relative binding free energy": -0.08}
{"sequence": "CGTTGCACGTGAGTGG", "relative binding free energy": 0.21}
{"sequence": "TGTGACACGTGGGTGA", "relative binding free energy": -0.08}
{"sequence": "CTTATCACGTGGGGGC", "relative binding free energy": -0.06}
{"sequence": "ATGGACACGTGCGGAT", "relative binding free energy": 0.04}
{"sequence": "TCGTGCACGTGTGTGT", "relative binding free energy": -0.13}
{"sequence": "TCGATCACGTGGAGTG", "relative binding free energy": 0.03}
{"sequence": "AGGGACACGTGTTAAA", "relative binding free energy": 0.17}
{"sequence": "GATATCACGTGAGTCG", "relative binding free energy": 0.49}
{"sequence": "ATTTGCACGTGAGTTG", "relative binding free energy": 0.29}
{"sequence": "CGGAACACGTGGGGTG", "relative binding free energy": -0.28}
{"sequence": "TATGGCACGTGCGTTC", "relative binding free energy": -0.12}
{"sequence": "ATATGCACGTGGGACT", "relative binding free energy": -0.06}
{"sequence": "TGAATCACGTGATTGG", "relative binding free energy": 0.29}
{"sequence": "GGCGGCACGTGGCATG", "relative binding free energy": -0.04}
{"sequence": "AGTAACACGTGTGAAG", "relative binding free energy": 0}
{"sequence": "GAATTCACGTGTGATT", "relative binding free energy": 0.32}
{"sequence": "TGGGGCACGTGTTTCT", "relative binding free energy": -0.08}
{"sequence": "AGGTTCACGTGACAGT", "relative binding free energy": 0.42}
{"sequence": "TGCTTCACGTGTGGGT", "relative binding free energy": 0.28}
{"sequence": "ACGTTCACGTGTTAGG", "relative binding free energy": 0.15}
{"sequence": "TACTGCACGTGGCTTG", "relative binding free energy": 0.06}
{"sequence": "TTGGCCACGTGGTCTT", "relative binding free energy": -0.12}
{"sequence": "CTATACACGTGAGTTG", "relative binding free energy": 0.27}
{"sequence": "GGGGCCACGTGTTAGA", "relative binding free energy": -0.07}
{"sequence": "CTGTGCACGTGTTAAG", "relative binding free energy": -0.1}
{"sequence": "CTCGGCACGTGTTGTG", "relative binding free energy": -0.13}
{"sequence": "TTTGCCACGTGTTAAG", "relative binding free energy": -0.08}
{"sequence": "TTGAACACGTGTGAGT", "relative binding free energy": 0.11}
{"sequence": "ATAGGCACGTGTGTCT", "relative binding free energy": -0.17}
{"sequence": "ATAGGCACGTGTCGTG", "relative binding free energy": -0.16}
{"sequence": "ATATGCACGTGGTAGT", "relative binding free energy": -0.1}
{"sequence": "GGGAACACGTGTTCGT", "relative binding free energy": 0}
{"sequence": "AAAGACACGTGATGGT", "relative binding free energy": 0.11}
{"sequence": "GGGTTCACGTGCGGGG", "relative binding free energy": 0.33}
{"sequence": "CTCGTCACGTGGGGAG", "relative binding free energy": -0.09}
{"sequence": "TGCAGCACGTGTTGTG", "relative binding free energy": -0.14}
{"sequence": "ATCTGCACGTGTTAGT", "relative binding free energy": -0.04}
{"sequence": "AATCGCACGTGTAGTT", "relative binding free energy": 0.02}
{"sequence": "GTGTCCACGTGCAGGT", "relative binding free energy": 0.09}
{"sequence": "ATGTACACGTGTAATT", "relative binding free energy": 0.04}
{"sequence": "GGGAACACGTGGTATT", "relative binding free energy": 0.04}
{"sequence": "CCTGGCACGTGGAGTG", "relative binding free energy": -0.1}
{"sequence": "ATAGGCACGTGGTTGT", "relative binding free energy": -0.08}
{"sequence": "AGTATCACGTGAAAGG", "relative binding free energy": 0.13}
{"sequence": "GTGAACACGTGAAGGG", "relative binding free energy": 0.26}
{"sequence": "TTGGCCACGTGGCTTG", "relative binding free energy": -0.15}
{"sequence": "GGAATCACGTGGGTGG", "relative binding free energy": 0.12}
{"sequence": "GTTTTCACGTGAGGTC", "relative binding free energy": 0.54}
{"sequence": "AAGTGCACGTGGGTTA", "relative binding free energy": -0.16}
{"sequence": "GTGTCCACGTGGGCGC", "relative binding free energy": -0.03}
{"sequence": "TGATACACGTGTAGTT", "relative binding free energy": 0.1}
{"sequence": "CTGTTCACGTGTGTGC", "relative binding free energy": 0.28}
{"sequence": "GGTGGCACGTGTAAAG", "relative binding free energy": 0.13}
{"sequence": "CGGCGCACGTGGCGTG", "relative binding free energy": -0.31}
{"sequence": "TCAGTCACGTGCGGTT", "relative binding free energy": -0.01}
{"sequence": "AGTAGCACGTGATAAG", "relative binding free energy": 0.01}
{"sequence": "TGTAGCACGTGTGCTT", "relative binding free energy": -0.02}
{"sequence": "ATAGTCACGTGACGGA", "relative binding free energy": 0.26}
{"sequence": "AGGTTCACGTGTAACT", "relative binding free energy": 0.28}
{"sequence": "ATATGCACGTGAAATG", "relative binding free energy": 0.31}
{"sequence": "TTCGTCACGTGGGTGC", "relative binding free energy": 0}
{"sequence": "GTTAGCACGTGCGATG", "relative binding free energy": -0.02}
{"sequence": "TGTGTCACGTGATATG", "relative binding free energy": 0.13}
{"sequence": "TGATACACGTGATAGT", "relative binding free energy": 0.09}
{"sequence": "GGTATCACGTGAGATG", "relative binding free energy": 0.34}
{"sequence": "GATGTCACGTGAGTTA", "relative binding free energy": 0.38}
{"sequence": "GAGTACACGTGATTGT", "relative binding free energy": 0.23}
{"sequence": "TTGTGCACGTGACGGT", "relative binding free energy": 0.06}
{"sequence": "TGCTGCACGTGAGGTT", "relative binding free energy": 0.16}
{"sequence": "GAGGACACGTGAAGTG", "relative binding free energy": 0.32}
{"sequence": "CGGATCACGTGCGGGT", "relative binding free energy": 0.14}
{"sequence": "AATGTCACGTGCGGTA", "relative binding free energy": 0.01}
{"sequence": "AGTTACACGTGCGATT", "relative binding free energy": 0.15}
{"sequence": "TATGACACGTGACTGT", "relative binding free energy": 0.13}
{"sequence": "AGGAACACGTGGGTAT", "relative binding free energy": -0.15}
{"sequence": "GTTTGCACGTGTTATC", "relative binding free energy": 0.02}
{"sequence": "ATAGTCACGTGTTGCG", "relative binding free energy": 0.01}
{"sequence": "TCTCTCACGTGGGTTT", "relative binding free energy": 0.08}
{"sequence": "CGTTGCACGTGTGTAG", "relative binding free energy": 0.17}
{"sequence": "AGAATCACGTGTGATG", "relative binding free energy": 0.19}
{"sequence": "TCGTACACGTGTTATT", "relative binding free energy": 0.08}
{"sequence": "GGAGTCACGTGTCGGG", "relative binding free energy": 0.2}
{"sequence": "ACTTTCACGTGGGGAT", "relative binding free energy": 0.08}
{"sequence": "TTTCTCACGTGAGGCT", "relative binding free energy": 0.27}
{"sequence": "GGGCGCACGTGGTCGT", "relative binding free energy": -0.16}
{"sequence": "GCGTGCACGTGGGGAT", "relative binding free energy": -0.15}
{"sequence": "TTTTTCACGTGAAATT", "relative binding free energy": 0.38}
{"sequence": "AAAGTCACGTGGATTT", "relative binding free energy": 0.1}
{"sequence": "GTCGGCACGTGGATTA", "relative binding free energy": 0.04}
{"sequence": "TAGGTCACGTGAGCTT", "relative binding free energy": 0.18}
{"sequence": "TTGAGCACGTGAGGAT", "relative binding free energy": 0.24}
{"sequence": "TTTACCACGTGCTTTT", "relative binding free energy": 0.03}
{"sequence": "GATTACACGTGGAAGT", "relative binding free energy": 0.15}
{"sequence": "TTATTCACGTGGTAAC", "relative binding free energy": 0.24}
{"sequence": "TGTCGCACGTGAAATG", "relative binding free energy": 0.2}
{"sequence": "CTGGCCACGTGAGGGT", "relative binding free energy": 0}
{"sequence": "GGCTTCACGTGGCGTT", "relative binding free energy": 0.2}
{"sequence": "CGGTTCACGTGGGATG", "relative binding free energy": 0.09}
{"sequence": "AATTGCACGTGTGTCT", "relative binding free energy": 0.11}
{"sequence": "TTGTGCACGTGTAATG", "relative binding free energy": 0.15}
{"sequence": "GACGTCACGTGTTATT", "relative binding free energy": 0.24}
{"sequence": "ATGAGCACGTGATGAG", "relative binding free energy": 0.15}
{"sequence": "AATAGCACGTGAGTAT", "relative binding free energy": 0.21}
{"sequence": "CGGGCCACGTGGATTT", "relative binding free energy": 0.15}
{"sequence": "TATGTCACGTGGTGCA", "relative binding free energy": -0.04}
{"sequence": "GTTCGCACGTGAAGGA", "relative binding free energy": 0.37}
{"sequence": "TGGTTCACGTGCTGCT", "relative binding free energy": 0.26}
{"sequence": "TAATTCACGTGAGATT", "relative binding free energy": 0.52}
{"sequence": "AGGATCACGTGTAGAT", "relative binding free energy": 0.27}
{"sequence": "GTTGGCACGTGCTGCG", "relative binding free energy": -0.22}
{"sequence": "GATCTCACGTGGGGGT", "relative binding free energy": 0.14}
{"sequence": "TGTCGCACGTGAGTCT", "relative binding free energy": 0.16}
{"sequence": "AGTAACACGTGTCGGT", "relative binding free energy": 0.02}
{"sequence": "GGTGTCACGTGACTGT", "relative binding free energy": 0.27}
{"sequence": "AGCGACACGTGGGGTT", "relative binding free energy": -0.05}
{"sequence": "ATTAGCACGTGCGTTT", "relative binding free energy": 0.01}
{"sequence": "GTTGGCACGTGCGTAT", "relative binding free energy": -0.13}
{"sequence": "GGTATCACGTGGTGAT", "relative binding free energy": 0.11}
{"sequence": "GTGGCCACGTGTCTGG", "relative binding free energy": -0.1}
{"sequence": "ATGGGCACGTGTACGG", "relative binding free energy": -0.11}
{"sequence": "TGTTCCACGTGATGTT", "relative binding free energy": 0.2}
{"sequence": "TTTGACACGTGTTAGC", "relative binding free energy": 0.18}
{"sequence": "ATACTCACGTGTGGGA", "relative binding free energy": 0.29}
